PubChem BioAssay AID1963576 (National Center for Advancing Translational Sciences (NCATS), 2024)
Among all 46,000 compounds or so, about 60 (0.1%) were called active. The shares of active, inactive and inconclusive entries below differ from those in the screen. Calls follow the shape of the dose curve; as a rule, active = well fitted inhibition curve with a large enough effect; inconclusive = small, poorly fitted or top-dose-only effect; inactive = no such curve, though single readings can be large or run the other way. Potencies of inconclusive entries are left out as doubtful fits.
Potency is read from the fitted curve at half-maximal effect; tags tell the direction and shape of the fitted curve.

Assay: Primary qHTS assay for Inhibitors of ovarian cancer metastasis using an organotypic tumor microenvironment (TME) model. Also: nearly all actives have a fitted effect of over 65% in size.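 As to Potency: count of GFP cancer cells still attached after washing and fixation.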
Settings: SKOV3ip1-GFP adhesion/invasion on 3D omental model, fluorescence; activity change, negative = inhibition: at 45.8 µM (top of the series); series mostly up to 45.8 µM
Source text: PI: Ernst Lengyel MD., Ph.D. Department of Obstetrics and Gynecology, Section of Gynecologic Oncology University of Chicago Medicine, Chicago, Illinois. The tumor microenvironment (TME) is a key determinant of metastatic efficiency. We performed a quantitative high-throughput screen (qHTS) of diverse medicinal chemistry tractable scaffolds (44,420 compounds) and pharmacologically active small molecules (386 compounds) using a layered organotypic, robust assay representing the ovarian cancer metastatic TME. This 3D model contains primary human mesothelial cells, fibroblasts, and extracellular matrix, to which fluorescently labeled ovarian cancer cells are added. Initially, 100 compounds inhibiting ovarian cancer adhesion/invasion to the 3D model in a dose-dependent manner were identified. Of those, eight compounds were confirmed active in five high-grade serous ovarian cancer cell lines and were further validated in secondary in vitro and in vivo biological assays. […] Specifically, NCGC00117362 and PP-121 inhibited ovarian cancer adhesion, invasion, and proliferation, whereas milciclib inhibited ovarian cancer invasion and proliferation. […] To evaluate the clinical potential of NCGC00117362, structure - activity relationship studies were performed. […] The three compounds identified have promise as therapeutics for prevention and treatment of ovarian cancer metastasis.
PROTOCOL TABLE (as described by Inglese J, Shamu CE and Guy RK. 2007) SEQUENCE No. (e.g., 1, 2, 3, etc.); […] (e.g., Cells, Incubation, Reagent, etc.); VALUE; DESCRIPTION. 1; Cells; 4 uL; primary human omental fibroblast, black, clear bottom, low base, 1536-well Aurora assay plate. 2; Incubation; 48 hr; 37C. 3; Cells; 3 uL; 1,200 SKOV3ip1-GFP cells. 4; Compounds; 23nL; acoustic dispenser. 5; Incubation; 2 hr; room temperature. 6; Incubation; 16 hr; 37C. 7; Wash; 5 uL; 1x PBS. 8; Fixing; 5 uL; 4% paraformaldehyde (PFA). 9; Incubation; 15 min; room temperature 10; Wash, 5 uL; 1x PBS. 11; Detection; Fluorescence, excitation filter 488 nm, emission filter 509 nm. NOTES (numbers refer to Sequence numbers above) 1. For the 1,536-well format, 40 primary human omental fibroblasts and 400 mesothelial cells were seeded with 0.02 µg fibronectin and 0.02 µg collagen type I in 4 µL of growth media (2.3 mm2; Supplementary Fig. S1A). 2. Assay plates were incubated for 48 hours at 37 C. 3. After incubation, 1,200 SKOV3ip1-GFP were seeded in 3 µL of serum-free media (growth media minus FBS) on top of primary human omental cells. 4. Compounds or controls were added to each well immediately after the addition of the cancer cells. Compounds were screened in four doses (0.36-46 µmol/L), and the plates contained the positive control (Tomatine) in eight doses (0.035-75 µmol/L) and DMSO (equal volume controls) 5 - 6. The plates were incubated at room temperature for 2 hours and then at 37 degrees C for 16 hours. 7 - 10. Following incubation, the media were aspirated and each well washed with PBS (5 µL) and then fixed with 4% paraformaldehyde (PFA; 5 µL). After 15 minutes, the PFA solution was aspirated, PBS (5 µL) was added. 11. The number of GFP-labeled cells analyzed using a fluorescent cytometer TTP LabTech Acumen eX3 using 488 nm excitation filter and 509 nm emission filter. Data was normalized to the DMSO treated for negative and Tomatine treated wells for positive control. REFERENCES: Inglese J, Shamu CE and Guy RK, Reporting data from high throughput screening of small molecule libraries, Nature Chemical Biology, 2007, 3(8): 438-441. doi.org/10.1038/nchembio0807-438. Yasgar A, Shinn P, Jadhav A, Auld DS, Michael S, Zheng W, Austin CP, Inglese J and Simeonov A, Compound Management for Quantitative High-Throughput Screening. J. Assoc. Lab. Auto., 2008, 13: 79-89. doi: 10.1016/j.jala.2007.12.004.
In the case of CN(C)c1ccc(-c2nc3ncc(Cl)c(N4CCN(CC(=O)Nc5nccs5)CC4)c3[nH]2)cc1, the Potency is reported as “inactive”.
In the case of CCCCN1CCC(CNC(=O)c2c3n(c4ccccc24)CCCO3)CC1, the Potency is reported as inconclusive [inhibitor, partial curve, poor fit].
In the case of CCCOc1cccc(C2c3c(-c4ccccc4O)n[nH]c3C(=O)N2Cc2ccco2)c1 (stereo not drawn), the Potency is reported as inconclusive [inhibitor, single point].
In the case of CCn1c(C(=O)NCc2ccccc2Br)cc2oc3ccccc3c21, the Potency is reported as inconclusive [inhibitor, full curve, poor fit].
In the case of CCCn1cnc2cc(NCc3ccccc3OCC)ccc21, the Potency is reported as inconclusive [inhibitor, partial curve, poor fit].
For Cc1ccc(C)c(N2CCN(CCCNC(=O)c3cnn(-c4ccccc4)c3C3CCN(C(=O)OC(C)(C)C)CC3)CC2)c1, the Potency was inconclusive [inhibitor, single point].
With COc1ccccc1Nc1c2c(nc3ccc(NC(=O)c4ccccc4F)cc13)CCCC2 the activity change, negative = inhibition was inconclusive: -31.3% [inhibitor].
In the case of COc1ccc(-c2nc3scc(CCNS(=O)(=O)c4ccc(Oc5ccccc5)cc4)n3n2)cc1, the Potency is reported as inconclusive [inhibitor, single point].
In the case of CC(=O)c1cccc(NC(=O)[C@H]2O[C@@H]3OC(C)(C)O[C@@H]3[C@H]3OC(C)(C)O[C@H]32)c1, the Potency is reported as inconclusive [inhibitor, single point].
In the case of Cc1ccc(C)c(NC(=O)N2CCN3CCCCC3C2)c1 (stereo not drawn), the Potency is reported as inconclusive [inhibitor, single point].
In the case of Clc1ccc(NCc2nc3ccccc3n2CCOc2ccccc2)cc1, the activity change, negative = inhibition is reported as inconclusive: -35.7% [inhibitor].
With CCOc1ccc(C(=O)Nc2ccc(-n3nncc3-c3ccc(OC)cc3)cc2)cc1 the Potency was “inactive”.
In the case of CSc1oc(-c2cccs2)nc1S(=O)(=O)c1ccc(Br)cc1, the Potency is reported as “inactive”.
In the case of Cc1cccc(-c2nc(CN3CCCC(C(=O)NCCc4ccc(Cl)cc4)C3)c(C)o2)c1 (stereo not drawn), the Potency is reported as inconclusive [inhibitor, single point].
In the case of CC(=O)OC1C(C)OC(Oc2c(-c3ccc(O)cc3)oc3cc(O)cc(O)c3c2=O)C(O)C1OC(C)=O (stereo not drawn), the Potency is reported as “inactive”.
With CC1(C)OC2=C(C(=O)c3ccccc3C2=O)[C@H](NCc2ccccc2)[C@H]1O the Potency was inconclusive [inhibitor, partial curve, poor fit].
In the case of COc1ccc(C)cc1NC(=O)c1cc(S(=O)(=O)N2CCN(c3cccc(C)c3C)CC2)ccc1F, the Potency is reported as “inactive”.
For O=S(=O)(c1ccc(-n2cnnn2)cc1)N1CCN(c2cccc(C(F)(F)F)c2)CC1, the Potency was inconclusive [inhibitor, single point].
With COC(=O)c1ccc(Cl)cc1NC(=O)N(Cc1ccc(OC)cc1)C1CCN(C(C)=O)CC1 the Potency was inconclusive [inhibitor, single point].
In the case of COc1ccc(NC(=O)Cn2c(=O)n(Cc3ccco3)c(=O)c3oc4ccccc4c32)cc1Cl, the Potency is reported as inconclusive [inhibitor, full curve, poor fit].
With COc1c(C)cccc1C(=O)Nc1ccc(-c2nc3ccccc3s2)c(Cl)c1 the Potency was inconclusive [inhibitor, partial curve].
In the case of Cc1c(C(=O)NCc2cccc(Br)c2)oc2ccc3c(c12)C(=O)CC(C)(C)O3, the Potency is reported as inconclusive [inhibitor, partial curve, poor fit].
For CN(C)CCCNc1cc(N2CCN(C3CCCCC3)CC2)c2noc3c2c1C(=O)c1ccccc1-3, the Potency was inconclusive [inhibitor, single point].
In the case of CCCN(CCC)c1ccc(C2N=C(N)Nc3nc4ccccc4n32)cc1 (stereo not drawn), the Potency is reported as inconclusive [inhibitor, single point].
With Cc1ccc(CCNC(=O)c2ccc3nc(N4CCC(C)CC4)sc3c2)cc1 the Potency was “inactive”.
For COC(=O)c1c(C)oc2ccc(N(C(=O)c3ccncc3)S(=O)(=O)c3ccc(OC)cc3)cc12, the Potency was “inactive”.
For CN(C)c1ccc(CNS(=O)(=O)c2ccc(-c3cc(C(F)(F)F)on3)s2)cc1, the Potency was inconclusive [inhibitor, single point].
In the case of CCOc1ccc(-c2c(C)nn3c(C)c(C(=O)NCCN(C)C)cnc23)cc1OCC, the Potency is reported as “inactive”.
With COC(=O)c1ccccc1NC(=O)Cn1nnc(-c2ccc(OC)cc2)n1 the Potency was inconclusive [inhibitor, partial curve, poor fit].
With COc1ccccc1C(=O)NCC(c1ccc(N(C)C)cc1)N1CCc2ccccc21 (stereo not drawn) the Potency was inconclusive [inhibitor, single point].
With OCC(O)C(O)C(O)CO (stereo not drawn) the Potency was inconclusive [inhibitor, single point].
In the case of CCOc1ccc(-c2cn3c(n2)sc2cc(C(=O)NCCCN4CCCCC4)ccc23)cc1, the Potency is reported as active: 11.2 µM.
For CCOc1ccccc1Oc1ncnc2c1oc1ccccc12, the Potency was inconclusive [inhibitor, partial curve, poor fit].
For COCCCn1c(=N)c(C(=O)NC2CCCC2)cc2c(=O)n3cccc(C)c3nc21, the Potency was “inactive”.
For O=C(NC1CCCCC1)c1ccc(CSc2nc3cccnc3n2Cc2cccc(F)c2)cc1, the Potency was inconclusive [inhibitor, single point].
In the case of Cc1cc(C)c(S(=O)(=O)NCCc2sc3nc(-c4ccc(F)cc4)nn3c2C)c(C)c1, the Potency is reported as inconclusive [inhibitor, single point].
With CCOc1ccc(NC(=O)N2CC3CCCN3c3ccccc32)cc1 (stereo not drawn) the Potency was “inactive”.
In the case of CCCCC(=O)Nc1c(C(=O)N2CCN(c3ccccc3F)CC2)oc2ccccc12, the Potency is reported as inconclusive [inhibitor, full curve, poor fit].
For COC(=O)c1ccc(NC(=O)CSc2cn(CC(=O)N3CCCCC3)c3ccccc23)cc1, the Potency was inconclusive [inhibitor, single point].
For CCOC(=O)c1c(C)oc2nc(C)nc(NCCc3ccc(OCC)c(OCC)c3)c12, the Potency was inconclusive [inhibitor, single point].
For COc1ccc(S(=O)(=O)c2c(Nc3ccccc3F)sc(C(=O)c3cccc(OC)c3)c2N)cc1, the Potency was inconclusive [inhibitor, single point].
In the case of CCN1CCN(c2cc(C)c3cc(NC(=O)/C=C/c4cccc(OC)c4OC)ccc3n2)CC1, the Potency is reported as inconclusive [inhibitor, partial curve, poor fit].
With CCCc1ccc(NC(=O)C2CCCN(c3cnccn3)C2)cc1 (stereo not drawn) the Potency was inconclusive [inhibitor, single point].
With COc1ccccc1N1CCN(C(=O)c2cnc(N3CCOCC3)c3ccccc23)CC1 the Potency was inconclusive [inhibitor, single point].
With CN1CCc2nc3sc(C(=O)Nc4ccccc4OC(F)(F)F)c(N)c3cc2C1 the Potency was inconclusive [inhibitor, single point].
With O=C(NCc1ccccc1)c1nc(S(=O)(=O)Cc2ccccc2)ncc1Cl the Potency was inconclusive [inhibitor, full curve, poor fit].
In the case of COc1ccc(Nc2nc3c(S(=O)(=O)c4ccccc4)nnn3c3ccsc23)cc1OC, the Potency is reported as “inactive”.
In the case of COc1ccc(NC(=O)c2c(C)oc3ccc(O)c(CN4CCCCCC4)c23)cc1Cl, the Potency is reported as inconclusive [inhibitor, single point].
With COc1ccc(/C=C/c2nc(C#N)c(NCCc3ccccc3)o2)cc1OC the Potency was “inactive”.
In the case of COc1ccccc1N1CCN(S(=O)(=O)CCNC(=O)COc2ccc(C(C)C)cc2)CC1, the Potency is reported as inconclusive [inhibitor, single point].
With O=c1[nH]c(=O)n(C2CCCCC2)c(O)c1C1=Nc2ccccc2SC(c2ccc(Cl)cc2)C1 (stereo not drawn) the Potency was “inactive”.
With Cc1ccc(/C=C/c2onc(C)c2S(=O)(=O)N2CCC(C(=O)N3CCN(c4ccccc4F)CC3)CC2)cc1 the Potency was “inactive”.
With CC(=O)Nc1ccc(S(=O)(=O)NCCc2cn3ccsc3n2)cc1 the Potency was inconclusive [inhibitor, single point].
In the case of COc1nc(C)cnc1NS(=O)(=O)c1cccnc1-c1ccc(-c2nnco2)cc1, the Potency is reported as “inactive”.
In the case of CCN1CCN(c2ncnc3c2cnn3-c2ccc(C)c(C)c2)CC1, the Potency is reported as “inactive”.
In the case of O=C(NCCCN1CCN(c2ccccc2F)CC1)c1cc2c(s1)-c1ccccc1OC2, the Potency is reported as inconclusive [inhibitor, single point].
For CCN(C(=O)c1cc2c(=O)oc3ccc(C)cc3c2s1)c1ccccc1F, the Potency was inconclusive [inhibitor, single point].
In the case of CCN(CC)c1cc(C)c2cc(NC(=O)c3ccc(F)cc3Cl)ccc2n1, the Potency is reported as inconclusive [inhibitor, single point].
In the case of O=c1cc(-c2ccccc2)c2ccc3c(c2o1)CN(Cc1ccccc1)CO3, the Potency is reported as “inactive”.
For Cc1nn(-c2ccc(N3CCCCC3)nn2)c(C)c1CCC(=O)NCc1ccc(Cl)cc1, the Potency was inconclusive [inhibitor, single point].
For COc1cc(Cl)c(C)cc1NC(=O)c1cnc(N2CCOCC2)c2ccccc12, the Potency was inconclusive [inhibitor, partial curve, poor fit].
In the case of Cc1ccc(OCCCSc2nc(-c3ccc(C(C)(C)C)cc3)nc3cc(=O)[nH]n23)cc1C, the Potency is reported as inconclusive [inhibitor, single point].
For CC(C)CC1Nc2ccc(C(=O)NCCCOC(C)C)cc2NC1=O (stereo not drawn), the Potency was “inactive”.
